# Test results: the supplement of paper PMC12217912
# The list shows a part of the results. Sequences were assembled here from the parent chain. Values near 0.05 are background.
# B1: TEV protease; numbered along this chain (parent)
# chain: MGESLFKGPRDYNPISSSICHLTNESDGHTTSLYGIGFGPFIITNKHLFRRNNGTLVVQSLHGVFKVKDTTTLQQHLVDGRDMIIIRMPKDFPPFPQKLKFREPQREERICLVTTNFQTKSMSSMVSDTSCTFPSGDGIFWKHWIQTKDGQCGSPLVSTRDGFIVGIHSASNFTNTNNYFTSVPKNFMELLTNQEAQQWVSGWRLNADSVLWGGHKVFMVKPEEPFQPVKEATQL
# Variants of: B1
# Experiment: raw area under fraction-flipped curve 0-4 h after induction (AUC4h, not background-subtracted), DNA-recorder readout of cleavage of the substrate (dimensionless); higher = more cleavage of the substrate by the protease variant
# Conditions: temperature: 34 °C; time window: 0-4 h after rhamnose induction
# Protocol: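 In vivo DNA recorder in E. coli TOP10(DE3) ΔrhaA at 34 °C. Each TEVp single-site mutant (parent TEVp 0) is paired with a single-site variant of the 7-mer TEVs (canonical ENLYFQ|S). The substrate sits between flexible linkers in a Bxb1-sfGFP-TEVs-SsrA fusion, so cleavage stabilises Bxb1 and speeds flipping of a recombination array, read by NGS. The value is the raw area under the fraction-flipped curve over 0-4 h after rhamnose induction (AUC4h), with ≥20 reads per time point. It is not background-subtracted; inactive controls average about 0.047.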
# 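Further: Bxb1 expression induced with 0.2% (w/v) L-rhamnose at OD600 near 0.5, cultures sampled hourly, flipped fraction per protease–substrate barcode pair counted by paired-end Illumina sequencing.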
Variant,area with substrate ENLYFAS,area with substrate ENLYFDS,area with substrate ENLYFES,area with substrate ENLYFGS,area with substrate ENLYFHS,area with substrate ENLYFIS,area with substrate ENLYFLS,area with substrate ENLYFMS,area with substrate ENLYFPS,area with substrate ENLYFRS,area with substrate ENLYFTS,area with substrate ENLYFWS,area with substrate ENLYFYS,area with substrate ENLYFCS,area with substrate ENLYFFS,area with substrate ENLYFVS,area with substrate ENLYFKS,area with substrate ENLYFNS,area with substrate ENLYFSS
MGESLFKGPRDYNPISSSICHLTNESDGHTTSLYGIGFGPFIITNKHLFRRNNGTLVVQSLHGVFKVKDTTTLQQHLVDGRDMIIIRMPKDFPPFPQKLKFREPQREERICLVTTNFQTKSISSMVSDTSCTFPSGDGIFWKHWIQTKDGQCGSPLVSTRDGFIVGIHSASNFTNTNNYFTSVPKNFMELLTNQEAQQWVSGWRLNADSVLWGGHKVFMVKPEEPFQPVKEATQL [M122I],0.064,0.0539,0.0598,0.0832,0.0904,0.0497,0.0634,0.0707,0.0657,0.0437,0.0689,0.0545,0.0726,–,–,–,–,–,–
MGESLFKGPRDYNPISSSICHLTNESDGHTTSLYGIGFGPFIITNKHLFRRNNGTLVVQSLHGVFKVKDTTTLQQHLVDGRDMIIIRMPKDFPPFPQKLKFREPQREERICLVTTNFQTKSVSSMVSDTSCTFPSGDGIFWKHWIQTKDGQCGSPLVSTRDGFIVGIHSASNFTNTNNYFTSVPKNFMELLTNQEAQQWVSGWRLNADSVLWGGHKVFMVKPEEPFQPVKEATQL [M122V],0.0534,–,0.057,–,0.0468,0.0584,–,0.0671,0.0514,–,0.059,–,0.0693,0.0594,0.0713,0.0575,–,–,–
MGESLFKGPRDYNPISSSICHLTNESDGHTTSLYGIGFGPFIITNKHLFRRNNGTLVVQSLHGVFKVKDTTTLQQHLVDGRDMIIIRMPKDFPPFPQKLKFREPQREERICLVTTNFQTKSMNSMVSDTSCTFPSGDGIFWKHWIQTKDGQCGSPLVSTRDGFIVGIHSASNFTNTNNYFTSVPKNFMELLTNQEAQQWVSGWRLNADSVLWGGHKVFMVKPEEPFQPVKEATQL [S123N],0.0615,0.0496,–,0.0282,0.0652,0.0519,0.0496,0.0644,0.0643,0.0646,0.0627,0.0472,0.0548,0.0637,0.0651,0.0691,0.0671,0.0686,0.0508
MGESLFKGPRDYNPISSSICHLTNESDGHTTSLYGIGFGPFIITNKHLFRRNNGTLVVQSLHGVFKVKDTTTLQQHLVDGRDMIIIRMPKDFPPFPQKLKFREPQREERICLVTTNFQTKSMSSMCSDTSCTFPSGDGIFWKHWIQTKDGQCGSPLVSTRDGFIVGIHSASNFTNTNNYFTSVPKNFMELLTNQEAQQWVSGWRLNADSVLWGGHKVFMVKPEEPFQPVKEATQL [V126C],0.0605,0.0429,0.0141,–,–,0.0591,–,0.0621,0.0474,–,0.0273,–,0.0592,0.0637,0.0585,–,–,–,–
MGESLFKGPRDYNPISSSICHLTNESDGHTTSLYGIGFGPFIITNKHLFRRNNGTLVVQSLHGVFKVKDTTTLQQHLVDGRDMIIIRMPKDFPPFPQKLKFREPQREERICLVTTNFQTKSMSSMVIDTSCTFPSGDGIFWKHWIQTKDGQCGSPLVSTRDGFIVGIHSASNFTNTNNYFTSVPKNFMELLTNQEAQQWVSGWRLNADSVLWGGHKVFMVKPEEPFQPVKEATQL [S127I],0.0668,0.0597,0.0435,0.0503,0.0562,0.0553,0.0676,0.071,0.0473,–,0.0573,0.0549,0.0603,0.0546,–,0.0536,0.0597,–,0.0537
MGESLFKGPRDYNPISSSICHLTNESDGHTTSLYGIGFGPFIITNKHLFRRNNGTLVVQSLHGVFKVKDTTTLQQHLVDGRDMIIIRMPKDFPPFPQKLKFREPQREERICLVTTNFQTKSMSSMVSDTECTFPSGDGIFWKHWIQTKDGQCGSPLVSTRDGFIVGIHSASNFTNTNNYFTSVPKNFMELLTNQEAQQWVSGWRLNADSVLWGGHKVFMVKPEEPFQPVKEATQL [S130E],0.0701,0.0635,0.0623,–,–,0.0712,–,0.0465,0.052,–,0.0586,0.0674,–,–,0.0411,–,–,0.0387,–
MGESLFKGPRDYNPISSSICHLTNESDGHTTSLYGIGFGPFIITNKHLFRRNNGTLVVQSLHGVFKVKDTTTLQQHLVDGRDMIIIRMPKDFPPFPQKLKFREPQREERICLVTTNFQTKSMSSMVSDTVCTFPSGDGIFWKHWIQTKDGQCGSPLVSTRDGFIVGIHSASNFTNTNNYFTSVPKNFMELLTNQEAQQWVSGWRLNADSVLWGGHKVFMVKPEEPFQPVKEATQL [S130V],0.06,0.0704,0.0571,–,0.0564,0.0589,–,0.0723,0.0565,0.0396,0.053,0.0619,0.0471,0.119,0.0187,0.0663,–,0.111,0.0642
MGESLFKGPRDYNPISSSICHLTNESDGHTTSLYGIGFGPFIITNKHLFRRNNGTLVVQSLHGVFKVKDTTTLQQHLVDGRDMIIIRMPKDFPPFPQKLKFREPQREERICLVTTNFQTKSMSSMVSDTSMTFPSGDGIFWKHWIQTKDGQCGSPLVSTRDGFIVGIHSASNFTNTNNYFTSVPKNFMELLTNQEAQQWVSGWRLNADSVLWGGHKVFMVKPEEPFQPVKEATQL [C131M],0.0573,–,0.0611,–,–,0.0567,–,–,0.0674,–,–,0.0467,–,–,–,–,–,–,–
MGESLFKGPRDYNPISSSICHLTNESDGHTTSLYGIGFGPFIITNKHLFRRNNGTLVVQSLHGVFKVKDTTTLQQHLVDGRDMIIIRMPKDFPPFPQKLKFREPQREERICLVTTNFQTKSMSSMVSDTSCTMPSGDGIFWKHWIQTKDGQCGSPLVSTRDGFIVGIHSASNFTNTNNYFTSVPKNFMELLTNQEAQQWVSGWRLNADSVLWGGHKVFMVKPEEPFQPVKEATQL [F133M],0.0604,–,0.0758,0.0631,0.0672,0.0534,0.0626,0.0611,0.0661,0.0624,0.0596,0.0639,–,0.0608,0.0802,0.0515,–,0.0662,0.0562
